Data on one molecule can be found in patent US20260015418A1 (ABL BIO, published 2026).

The target in assay [1] is T1, human ROR1-Fc protein (Sino Biological, 13968-H02H1) (human, UniProt Q01973 fragment).
T1 construct: Bought protein; also called human ROR1 protein (13968-H02H1, Fc tag)
Description: DACE ELISA; 7 days in monkey serum, against day 0. Here is the method: (§1) A 96-well microtiter plate (NUNC, 446612) was coated overnight at 4° C. with human ROR1-Fc protein (Sinobio, 13968-H02H1) at 100 ng/well in PBS. The plate was then incubated with 1% BSA buffer (1×PBS, 1% (v/v) BSA) at 200 μl/well at 37° C. for 2 hours to block non-specific binding. Thereafter, the blocking solution was discarded and fourfold dilutions of each bispecific antibody test material (starting from 100 nM) were added to the wells. The plate was incubated at 37° C. for 2 hours and then washed with PBS-T (1×PBS/0.05% (v/v) Tween-20). Subsequently, human 4-1BB-His protein (Sinobio, 10041-H08H) dissolved in 1% BSA buffer was added at 100 ng/well and incubated at 37° C. for 1 hour. After washing with PBS-T, the plate was incubated with anti-His HRP (Roche, Cat: 11965085001) at 37° C. for 1 hour. After washing, color development was performed with TMB (tetramethylbenzidine, Sigma, T0440) and the color development was stopped with 0.5M sulfuric acid (Samchun Chemicals, S1410), and the absorbance (OD) at 450-650 nm was read using a spectrophotometer. Four-parameter logistic curve analysis was performed using GraphPad software.

The target in assay [2] is T1, human ROR1-Fc protein (Sino Biological, …). Briefly: DACE ELISA; 0 day in monkey serum, against day 0. Here is the method: as §1
For orientation: ELISA stands for enzyme-linked immunosorbent assay.

The target is the same in assay [3]. Briefly: DACE ELISA; 3 days in monkey serum, against day 0. As for the experimental part:
as §1

Assay [4] addresses T2, human ROR1 on cells (NCI-N87, CHOK1-hROR1, AGS, CHO-huROR1-huB7-H3) (human, UniProt Q01973 30-937).
T2 construct: whole, on cells; also called cell surface ROR1
Description: flow cytometry on ROR1-positive NCI-N87 cells, FITC-conjugated anti-human IgG (Fc specific). Here is the method:
In particular, Jurkat cells overexpressing human 4-1BB (Promega) and NCI-N87 cells, a human ROR1 positive cell line (ATCC), were seeded into V-bottom 96-well plates (96 Well Plate-RV, Bioneer, 910D09) and washed with 200 μl/well of 1% BSA buffer. Fourfold dilutions of the test materials (bispecific antibodies) starting from 100 nM were added to each well and incubated for 1 hour at 4° C. The plates were then washed with 1% BSA buffer. To each well, FITC-conjugated anti-human IgG (Fc specific) (Sigma, F9512) dissolved in 1% BSA buffer was added and incubated for 1 hour at 4° C. The plates were washed again with 1% BSA buffer. The mean fluorescence intensity (MFI) of FITC was measured by flow cytometry. Four-parameter logistic curve analysis was performed on the obtained MFI values using GraphPad software.

In assay [5] the target is T1, human ROR1-Fc protein (Sino Biological, …). Description: SPR Biacore T200, ROR1-Fc amine-coupled on CM5, antibody as analyte, bivalent analyte model (Kd1). Here is the method:
The binding affinity of both BA6M11(WT)x1A10M12 and BA6M11 (NA)x1A10M12 clones, which are anti-ROR1/anti-4-1BB bispecific antibodies comprising BA6M11 clone, was assessed using surface plasmon resonance (SPR). The antigens used for this assessment were human ROR1 protein (13968-H02H1, Fc tag) from Sino Biological and human 4-1BB protein (9220-4B-100, his tag) from R&D Systems. The measurements were conducted on a Biacore T200 instrument (Cytiva).
The CM5 chip (Cytiva, BR100530) was coated with a 5 μg/mL human ROR1 protein dilution in Acetate 4.0 (Cytiva, BR100349) using the amine coupling method (Cytiva, BR100050) to achieve a surface density of about 80 RU. […] These diluted antibody samples were then flowed over the human ROR1 protein-immobilized CM5 chip for approximately 60 seconds to conjugate the sample to the antigen, followed by flowing HBS-EP buffer (1×) over the sample-antigen complex for 180 seconds to dissociate the sample from the antigen. […] Binding affinity was analyzed using the bivalent analyte model to derive the primary association rate constant (Ka1) and primary dissociation rate constant (Kd1). The equilibrium dissociation constant (KD) was calculated by dividing the primary dissociation rate constant by the primary association rate constant, and this value was used to represent the final binding affinity.
Background: Surface plasmon resonance follows binding to a sensor surface in real time, without labels.

The target is the same in assay [6]. Briefly: DACE ELISA (ROR1-Fc coated, 4-1BB-His detection); 3 days in monkey serum at 37°C. Here is the method: as §1
The target is the same in assay [7]. Description: DACE ELISA; 0 day in human serum, against day 0. As for the experimental part: as §1
For assay [8] the target is unchanged. Description: DACE ELISA (ROR1-Fc coated, 4-1BB-His detection); 0 day in monkey serum at 37°C. Here is the method:
as §1

Usually EC50 (read off the curve) stands for the concentration that produces a half-maximal response. The term koff denotes a measure of how fast the partners let go of each other. As a reminder, the EC50 is the concentration that produces a half-maximal response.

B1: BA6M11(NA)x1A10M12 anti-ROR1/anti-4-1BB bispecific antibody (bispecific antibody, human IgG1, lambda)
heavy: EVQLLESGGGLVQPGGSLRLSCAASGFTFSNYDMSWVRQAPGKGLEWVSAIYHSGSSKYYADSVKGRFTISRDNSKNTLYLQMNSLRAEDTAVYYCARGGSGAWDTGFDYWGQGTLVTVSSASTKGPSVFPLAPSSKSTSGGTAALGCLVKDYFPEPVTVSWNSGALTSGVHTFPAVLQSSGLYSLSSVVTVPSSSLGTQTYICNVNHKPSNTKVDKKV[human IgG1 Fc with changes not shown]GSGSGSGSGSGSGSGSGSQSVLTQPPSASGTPGQRVTISCSGSSSNIGNNYVTWYQQLPGTAPKLLIYADSHRPSGVPDRFSGSKSGTSASLAISGLRSEDEADYYCATWDYSLSGYVFGCGTKLTVLGGGGSGGGGSGGGGSGGGGSEVQLLESGGGLVQPGGSLRLSCAASGFTFSSYDMSWVRQAPGKCLEWVSWISYSGGSIYYADSVKGRFTISRDNSKNTLYLQMNSLRAEDTAVYYCARDAQRNSMREFDYWGQGTLVTVSS
light: QSVLTQPPSASGTPGQRVTISCSGSSSNIGSNDVSWYQQLPGTAPKLLIYYENNRPSGVPDRFSGSKSGTSASLAISGLRSEDEADYYCGAWDDSLSGYVFGGGTKLTVLGQPKAAPSVTLFPPSSEELQANKATLVCLISDFYPGAVTVAWKADSSPVKAGVETTTPSKQSNNKYAASSYLSLTPEQWKSHRSYSCQVTHEGSTVEKTVAPAECS
notes: As BA6M11(WT)x1A10M12 but with the N297A (NA) mutation in the Fc; also called BA6M11(NA) × 1A10M12
B1: the “EC50 Ratio (%)” value turned out to be 81% in assay [1], 100% in assay [2], 87% in assay [3] and 100% in assay [7]. The half-maximal effective concentration (EC50 (read off the curve)) in assay [4] is ~0.2 nM. In assay [5], this molecule showed a koff of 0.00152 s⁻¹. The values for the EC50 in assay [6] and in assay [8] were 0.238 nM and 0.208 nM, respectively.
